# Screen size: about 360,000 compounds; about 740 (0.21%) were called active. Inconclusive results, whose numbers are uncertain, are shown with a selection of clear calls. The call rests on the fitted dose curve; in most records, active means well fitted inhibition curve with a large enough effect; inconclusive means small, poorly fitted or top-dose-only effect; inactive means no such curve, though single readings can be large or run the other way. Potencies of inconclusive entries are left out as doubtful fits.
# Tested on: Plasmodium falciparum AMA1 (3D7) - RON2 peptide interaction
# Test: qHTS for Inhibitors of AMA1-RON; Towards Development of Antimalarial Drug Lead: Primary Screen; further: nearly all actives have a fitted effect of over 45% in size;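 on activity change, negative = inhibition: 0% = vehicle wells and -100% = peptide control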
# Settings: AlphaScreen AMA1-biotinylated RON2 peptide binding; activity change, negative = inhibition: at 58.2 µM (top of the series) unless noted
# Procedure, shortened: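 AMA1 (3D7) with his tag at 25 nM final met compounds first, then biotinylated RON2 peptide at 25 nM; detection used donor plus acceptor beads, 10 µg/mL apiece, read by AlphaScreen after 30 min at room temperature.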
# Potency means the concentration at half of the fitted maximal effect; tags describe the fitted curve by direction and shape.
Structure (SMILES),Potency,"activity change, negative = inhibition"
CCN1/C(=C(\O)c2ccccc2)C(=O)c2ccccc2S1(=O)=O,"inconclusive [inhibitor, single point]",–
CCc1nnc(NC(=O)CSc2nnc(-c3ccco3)n2C)s1,–,inactive: 3.03%
C=CCn1c(C)csc1=Nc1ccccc1C,"inconclusive [inhibitor, single point]",–
CN(Cc1ccc(F)cc1)C(=O)c1cccc(S(=O)(=O)N2CCN(c3ccccc3)CC2)c1,"inconclusive [inhibitor, single point]",–
Fc1ccc(CSc2nnc(-c3ccco3)o2)cc1,–,inactive: -0.638%
CC1CN(c2c3c(nc4ncnn24)CCCC3)CC(C)O1 (configuration not stated),–,inactive: -3.19%
COc1cc(C(=O)N/N=C/c2cn(Cc3ccccc3)c3ccccc23)ccc1O,–,inactive: -3.34%
O=[N+]([O-])c1cc(Cl)ccc1N1CCN(c2cccc(C(F)(F)F)c2)CC1,"inconclusive [inhibitor, partial curve]",–
COCCn1c(CN2CCN(c3cccc(Cl)c3)CC2)nc2c1c(=O)n(C)c(=O)n2C,–,inactive: -8.67%
O=C(c1ccc(-c2ccccc2Cl)o1)N1CCCCCCC1,"inconclusive [inhibitor, single point]",–
COc1cc(OC)c2c(-c3ccccc3)cc(=O)oc2c1C(CC(=O)N1CCN(c2ccccc2)CC1)c1ccc(N(C)C)cc1 (configuration not stated),"inconclusive [inhibitor, partial curve]",–
CN1C(=O)N(S(=O)(=O)c2ccc(F)c(F)c2F)C(=O)C1(C)C,"inconclusive [inhibitor, partial curve]",–
COc1cccc(/C=C2\SC(=S)N(CCCC(=O)N(CCO)c3ccccc3)C2=O)c1,"inconclusive [inhibitor, single point]",–
CCOc1ccccc1NC(C)C(=O)Nc1cc(C(F)(F)F)ccc1N1CCOCC1 (configuration not stated),"inconclusive [inhibitor, single point]",–
COc1ccc(N=Nc2ccc(CO)cc2)cc1,"inconclusive [inhibitor, single point]",–
O=C(COc1ccc(Cl)cc1)N1CCN(Cc2ccc3c(c2)OCO3)CC1,"inconclusive [inhibitor, partial curve]",–
Cn1nc(-c2ccccn2)nc2c(=O)n(C)c(=O)nc1-2,active: 8.91 µM,–
COc1ccc(-c2nc(Cn3c(SCc4cccc(F)c4)nc4ccncc43)c(C)o2)cc1OC,"inconclusive [inhibitor, single point]",–
COc1ccccc1CNc1nc(NCc2ccc(C)cc2C)c2sccc2n1,"inconclusive [inhibitor, partial curve]",–
O=C(CC1CC2CCC1C2)OCC(=O)c1c[nH]c2ccccc12 (configuration not stated),"inconclusive [inhibitor, single point]",–
c1ccc(Cn2nnc3c(N4CCC5(CC4)OCCO5)ncnc32)cc1,"inconclusive [inhibitor, full curve, poor fit]",–
O=C(/C=C/c1cccc(Br)c1)N1CCN(c2ccccn2)CC1,–,inactive: -10.4%
Clc1ncn(CCOc2ccccc2)c1Cl,"inconclusive [inhibitor, partial curve]",–
Cc1cccc(NC2=Nc3ccccc3N3C2=Nc2c(c(C)nn2-c2ccccc2)C3c2ccc(O)c(O)c2)c1 (configuration not stated),"inconclusive [inhibitor, single point]",–

Structure (SMILES),Potency,"activity change, negative = inhibition"
CCCCCCSc1nnc(-c2cnn(-c3ccccc3)c2-n2cccc2)n1C,"inconclusive [inhibitor, partial curve]",–
COc1ccc(-c2nc(C#N)c(N3CCCCC3)o2)cc1,"inconclusive [inhibitor, single point]",–
O=C(CSc1nc(-c2ccco2)cc(C(F)(F)F)n1)Nc1ccc(C(=O)N2CCCCC2)cc1,–,inactive: 6.17%
Cc1nc(N2CCC(C)CC2)c2c(C)c(C(=O)Nc3cccc(C(F)(F)F)c3)sc2n1,–,inactive: -11.4%
CCOc1ccc(CN(C)CCc2ccccn2)cc1,"inconclusive [inhibitor, partial curve]",–
Cc1cc(C(=O)COC(=O)/C=C/c2cccc(Br)c2)c(C)n1C,"inconclusive [inhibitor, single point]",–
CCOC(=O)c1ccc(N=c2scc(C)n2CC)cc1,"inconclusive [inhibitor, single point]",–
Cc1cccc(NNC(=O)C(=O)NNc2cccc(C)c2)c1,"inconclusive [inhibitor, full curve]",–
O=C(Nc1ccc(N2CCOCC2)c(Cl)c1)c1cc(F)c(F)cc1Cl,"inconclusive [inhibitor, single point]",–
CC1CCN(C(=O)c2ccc3c(c2NCCO)C(=O)c2ccccc2C3=O)CC1,"inconclusive [inhibitor, single point]",–
O=C(Nc1cc(S(=O)(=O)N2CCOCC2)ccc1N1CCCCC1)c1cc(-c2ccccn2)nc2ccccc12,–,inactive: -10.8%
COc1cccc(N2CCN(C(=O)CCSCc3ccccc3F)CC2)c1,–,inactive: -26.3%
CCN(CC)c1ccc(/C=C/c2ccc3ccc(OC)cc3[n+]2CC)cc1,"inconclusive [inhibitor, single point]",–
CN(C)c1ccc(C(=S)N2CCN(Cc3ccccc3)CC2)cc1,"inconclusive [inhibitor, partial curve]",–
COc1ccc(NC(=O)C(Cc2ccccc2)n2cccc2)cc1 (configuration not stated),"inconclusive [inhibitor, partial curve]",–
Cc1nc2ccc(NC(=O)c3ccc(Cl)nc3)cc2s1,–,inactive: 9.77%
Cc1ccn2c(Nc3ccccc3C)c(-c3ccncc3)nc2c1,"inconclusive [inhibitor, partial curve]",–
COc1cc(C)c(CN2CCN(c3ccccc3)CC2)cc1C,"inconclusive [inhibitor, partial curve]",–
Fc1ccc(-n2nnc(-c3cccnc3)n2)cc1,–,inactive: 4.19%
Cc1ccc(C(=O)NC(C)C2CC3CCC2C3)c(C)c1 (configuration not stated),–,inactive: 0.54%
CSC1(SC2=NCCN2)SC2(NCCN2)S1,–,inactive: 52.1%
Cc1ccc(NC2c3ncccc3C(=O)N2Cc2ccco2)c(C)c1 (configuration not stated),"inconclusive [inhibitor, single point]",–
Cc1ccc(S(=O)(=O)N2CCN(C(=O)c3cccc(-n4cccc4)c3)CC2)cc1,"inconclusive [inhibitor, single point]",–
O=C(NCCNC(=O)c1ccc(Br)o1)c1ccc(Br)o1,–,inactive: -2.3%

Structure (SMILES),Potency,"activity change, negative = inhibition"
CCN(CC)C(=O)CSc1nc2cc3c(cc2c(=O)n1Cc1ccco1)OCO3,–,inactive: -8.85%
CSc1ccc(Cl)c(C(=O)OCC(=O)N2CCN(c3ccccc3)CC2)c1,"inconclusive [inhibitor, single point]",–
Cc1cccc(OCc2nc(C#N)c(N3CC(C)CC(C)C3)o2)c1 (configuration not stated),"inconclusive [inhibitor, partial curve]",–
COc1cccc(OCC(O)CN2CCN(C(c3ccccc3)c3ccccc3)CC2)c1 (configuration not stated),"inconclusive [inhibitor, single point]",–
CCN1CCN(C(=O)Nc2ccc(Cc3ccc(NC(=O)N4CCN(CC)CC4)cc3)cc2)CC1,"inconclusive [inhibitor, partial curve]",–
Cc1ccc(C(=O)NCc2ccco2)cc1S(=O)(=O)Nc1cccc(C)c1C,–,inactive: -5.43%
Cc1cc(=O)c2c(=O)[nH][nH]c2[nH]1,"inconclusive [inhibitor, partial curve]",–
COc1ccc2[nH]c3c(c2c1)CCN1C(=O)C(CC(=O)NC/C=C(\C)CCC=C(C)C)C[C@H](C(=O)N(C(C)C)C(C)C)[C@@]31C (some centres not stated),"inconclusive [inhibitor, single point]",–
COc1ccc(CN2C(=O)CN(S(C)(=O)=O)CC2(C)C(=O)Nc2ccc3c(c2)OCCO3)cc1OC (configuration not stated),–,inactive: 8.9%
CCCCNC(=O)CSc1nnc(NC(C)=O)s1,–,inactive: 1.26%
C[C@H](CO)N1C[C@H](C)[C@@H](CN(C)S(=O)(=O)c2cn(C)cn2)Oc2ncc(Br)cc2C1=O,–,inactive: 2.06%
Clc1ccc(SCCOCCN2CCc3ccccc3C2)cc1,"inconclusive [inhibitor, partial curve]",–
C=CSc1sc(Cl)c(N(CC)CC)c1[N+](=O)[O-],"inconclusive [inhibitor, single point]",–
c1ccc(CNc2ncnc3c2ncn3C2CCCCO2)cc1 (configuration not stated),–,inactive: 2.87%
COC1(C)CC2C(CC1OC(=O)c1cc([N+](=O)[O-])cc([N+](=O)[O-])c1)C2(C)C (configuration not stated),"inconclusive [inhibitor, partial curve]",–
O=[N+]([O-])c1cccc(CN2CCN(Cc3ccc(Br)cc3)CC2)c1,"inconclusive [inhibitor, single point]",–
CC(C)CNC(=O)CSc1nnc2ccccn12,–,inactive: -8.44%
COc1ccc(CCNC(=O)C2CCC(=O)N(CC3CCCCC3)C2)cc1 (configuration not stated),"inconclusive [inhibitor, partial curve]",–
Oc1ccc(Cn2ccnc2)c2cccnc12,–,inactive: -85.3%
CCOC(=O)c1oc2nc(CC(C)C)c3c(c2c1N)CCCC3,–,inactive: -6.15%
C[C@@H]1Cc2c(O)c(O)cc(O)c2C(=O)O1,"inconclusive [inhibitor, partial curve]",–
CC1(C)Nc2ccc(O)cc2-c2c1ssc2=S,"inconclusive [inhibitor, single point]",–
CC(C)CC(=O)N1CCN(Cc2ccc(C(F)(F)F)cc2)CC1,"inconclusive [inhibitor, partial curve]",–
O=C(CSC1=NS(=O)(=O)c2cc(Cl)ccc2N1)NCCc1ccccc1,"inconclusive [inhibitor, partial curve]",–

# — PubChem BioAssay AID720542 (National Center for Advancing Translational Sciences (NCATS), 2013)
